# In PubChem BioAssay AID360 (National Center for Advancing Translational Sciences (NCATS), 2006):
# Out of some 48,000 compounds screened, about 550 (1.1%) were called active. Another 4% or so got no clear call; they are omitted. No stated cut-off is given here; in the data, active means potency below about 15 µM; inconclusive means mostly about 16 µM to 33 µM; inactive means weaker than that. This is one part of the list.
# Molecular target: Lysosomal acid glucosylceramidase (Homo sapiens) (UniProt P04062)
# Experiment: Glucocerebrosidase;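 further: the screen sought inhibitors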
# Conditions: purified enzyme, resorufin glucoside fluorescence (screen aimed at inhibitors), 20 min
# In short: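 Compounds titrated against 0.2 nM normal enzyme, 30 uM resorufin beta-D-glucopyranoside substrate, citrate/phosphate buffer with taurocholate and tween-20, pH 5.9. Reaction ran 20 min at room temperature; fluorescence (Ex 548/Em 600) gave AC50.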
# Potency means the concentration at half of the fitted maximal effect.
# UniProt P04062, sequence (P04062 whole entry, looked up): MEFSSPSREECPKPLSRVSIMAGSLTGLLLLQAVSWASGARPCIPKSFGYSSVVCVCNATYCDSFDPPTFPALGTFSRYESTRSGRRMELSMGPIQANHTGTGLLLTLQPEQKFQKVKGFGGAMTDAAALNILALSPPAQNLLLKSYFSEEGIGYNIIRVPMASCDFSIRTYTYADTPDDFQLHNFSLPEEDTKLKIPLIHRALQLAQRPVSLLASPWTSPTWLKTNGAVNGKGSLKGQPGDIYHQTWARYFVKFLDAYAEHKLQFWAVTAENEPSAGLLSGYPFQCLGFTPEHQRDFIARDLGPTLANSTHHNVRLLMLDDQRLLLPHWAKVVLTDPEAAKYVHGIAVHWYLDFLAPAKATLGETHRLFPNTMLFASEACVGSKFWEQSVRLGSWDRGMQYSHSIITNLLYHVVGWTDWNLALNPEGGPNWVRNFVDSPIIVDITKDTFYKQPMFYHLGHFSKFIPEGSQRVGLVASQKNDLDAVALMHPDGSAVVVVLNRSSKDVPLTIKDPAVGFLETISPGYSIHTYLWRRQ
row,SMILES,Potency
1,Cc1cc(S(=O)(=O)N2CCC(NC(=O)C34CC5CC(CC(C5)C3)C4)CC2)ccc1-n1cnnn1,inactive: > 76.9 µM
2,Cc1ccc2nc(Nc3ccc4[nH]c(=O)[nH]c4c3)c(-n3nc(C)cc3C)nc2c1,inactive: > 76.9 µM
3,O=C(COC(=O)C1c2ccccc2Oc2ccccc21)Nc1ccc2c(c1)OCO2,inactive: > 76.9 µM
4,Cc1cc(NC(=O)c2ccc(NC(=O)C(C)Oc3ccccc3)cc2)no1 (configuration not stated),active: 1.93 µM
5,COc1ccc(N/C(N)=N/c2nc(CSc3ccc(C)cc3)cc(=O)[nH]2)cc1,active: 9.71 µM
6,Cc1ccccc1NS(=O)(=O)c1ccc(OCC(=O)NCc2ccco2)cc1,inactive: > 76.9 µM
7,COc1cc(C(=O)Nc2ccc3c(c2)OCCO3)ccc1-n1cnnn1,inactive: > 76.9 µM
8,O=C(CNS(=O)(=O)c1ccccc1)N1CCN(c2ccccc2)CC1,inactive: > 76.9 µM
9,Cc1ccc(-n2ncc3c(=O)n(CC(=O)Nc4cccc(Cl)c4)cnc32)cc1C,inactive: > 76.9 µM
10,CCOC(=O)N1CCN(c2c(-c3ccc(C(C)C)cc3)c(=O)c2=O)CC1,inactive: > 76.9 µM
11,CCOC(=O)c1ccccc1NC(=O)c1ccc(N(C)S(C)(=O)=O)cc1,inactive: > 76.9 µM
12,COc1ccc2[nH]c(=O)c(C(c3nnnn3C3CCCCC3)N3CCN(C)CC3)cc2c1 (configuration not stated),inactive: > 76.9 µM
13,COC(=O)c1cccc(-n2nnnc2SCC(=O)Nc2nc3c(s2)CCCC3)c1,inactive: > 76.9 µM
14,CSc1ccc2[nH]c(=O)cc(C)c2c1,inactive: > 76.9 µM
15,COCc1[nH]nc2c1C(c1ccccc1F)C(C#N)=C(N)O2 (configuration not stated),inactive: > 76.9 µM
16,Cc1ccccc1-c1nnc(-c2ccc(Br)cc2)o1,inactive: > 76.9 µM
17,COC(=O)c1ccc(CN(C)S(=O)(=O)c2ccc(C)cc2)o1,inactive: > 76.9 µM
18,CCn1nnnc1NCc1cccn1C,inactive: > 76.9 µM
19,CCOC(=O)C1CCCN(C(=O)c2cnn3c(C(F)F)cc(-c4ccc(C)cc4)nc23)C1 (configuration not stated),inactive: > 76.9 µM

row,SMILES,Potency
1,COc1ccc(Oc2nc(C)nc3c2oc2ccccc23)cc1,inactive: > 76.9 µM
2,O=C(CCN1CCN(c2ccc(F)cc2)CC1)Nc1ccccc1F,inactive: > 76.9 µM
3,O=C(NCCc1ccccc1)c1ncn[nH]1,inactive: > 76.9 µM
4,O=C(COc1ccc(S(=O)(=O)N2CCCCC2)cc1)NC1CCCCC1,inactive: > 76.9 µM
5,COC(=O)Nc1ccc(S(=O)(=O)N2CCCCCC2)cc1,inactive: > 76.9 µM
6,O=C(NCCN1CCNCC1)c1ccccn1,inactive: > 76.9 µM
7,CS(=O)(=O)c1nc(-c2ccccc2)cc(C(F)(F)F)n1,inactive: > 76.9 µM
8,COc1ccc(C2CC(O)(C(C)(C)O)NO2)cc1 (configuration not stated),inactive: > 76.9 µM
9,Oc1ccccc1-c1nnc(-c2ccc(C(F)(F)F)cc2)o1,inactive: > 76.9 µM
10,CC(=O)Nc1cc(NC(=O)C2C3C=CC(C3)C2C(=O)O)ccc1Cl (configuration not stated),inactive: > 76.9 µM
11,CC(=O)N1c2ccc(S(=O)(=O)CCC(=O)O)cc2CC1C (configuration not stated),inactive: > 76.9 µM
12,Cc1nc(C)c(C(=O)C2=C(O)C(=O)N(CCN(C)C)C2c2ccccc2)s1 (configuration not stated),inactive: > 76.9 µM
13,COCC(=O)N(C)c1nnc(-c2cnccn2)s1,inactive: > 76.9 µM
14,Cc1ccc(S(=O)(=O)N2CCOCC2)cc1C(=O)Nc1nc(-c2cccnc2)cs1,inactive: > 76.9 µM
15,CCC1CCC2(CC1)NC(CO)(CO)CO2 (configuration not stated),inactive: > 76.9 µM
16,CN1C(=O)CSc2ccc(NC(=O)N3CCC(N4CCCCC4)CC3)cc21,inactive: > 76.9 µM
17,CCCC(=O)Nc1ccc(N2CCOCC2)cc1,inactive: > 76.9 µM
18,COc1ccc(C(c2nnnn2Cc2ccccc2)N2CCN(c3nc4ccccc4s3)CC2)cc1 (configuration not stated),inactive: > 15.4 µM
19,CC(C)NS(=O)(=O)c1ccc(CCC(=O)O)cc1,inactive: > 76.9 µM

row,SMILES,Potency
1,COc1ccc(NC(=O)c2cccc(NC(=O)C3C4CC5OC(=O)C3C5C4)c2)c(OC)c1 (configuration not stated),inactive: > 76.9 µM
2,COc1cccc2cc(C(=O)NCC3CCCO3)c(=O)oc12 (configuration not stated),inactive: > 76.9 µM
3,O=C(Nc1ccc(Cl)cc1C(=O)Nc1ccccn1)c1ccco1,inactive: > 76.9 µM
4,CCOC(=O)c1cc(-c2ccncc2)nc2c1c(C)nn2-c1ccccn1,inactive: > 76.9 µM
5,COc1ccccc1CNC(=O)CN1C(=O)C(C)N(c2ccc(C)cc2)C1=O (configuration not stated),inactive: > 76.9 µM
6,O=C(CNS(=O)(=O)c1cccc2nsnc12)NCc1ccc(Cl)cc1,inactive: > 76.9 µM
7,C=CCSc1nnc2c(n1)OC=Nc1ccc(Br)cc1-2,inactive: > 76.9 µM
8,CC(=O)C1=C(O)C(=O)N(C2CCCCC2)C1c1ccccc1 (configuration not stated),inactive: > 76.9 µM
9,O=C(NC1(C(F)(F)F)N=C2SCCN2C1=O)c1ccco1 (configuration not stated),inactive: > 76.9 µM
10,COC(=O)c1cc(Br)c(=O)n(CCC2=CCCCC2)c1,inactive: > 76.9 µM
11,Cc1ccc2c(c1)cc(CN(Cc1ccco1)S(=O)(=O)c1ccccc1)c1nnnn12,inactive: > 76.9 µM
12,CC(=O)CCCCn1c(=O)c2c(ncn2C)n(C)c1=O,inactive: > 76.9 µM
13,COc1ccc2c(c1)CCc1c(C(=O)N3CCCC3)noc1-2,inactive: > 76.9 µM
14,CCCN(CCO)Cc1ccc(Cl)c(Cl)c1,inactive: > 76.9 µM
15,O=C(CCSc1nnc2scc(-c3ccccc3)n12)NCc1ccc2c(c1)OCO2,inactive: > 76.9 µM
16,O=C(CSc1nnc(Cc2cc(=O)[nH]c(=O)[nH]2)n1-c1ccccc1)N1CCCc2ccccc21,inactive: > 76.9 µM
17,Cc1cc(NC(=O)CCC(=O)N(c2ccc(F)cc2)C(C(=O)NC2CCCC2)c2ccncc2)no1 (configuration not stated),inactive: > 76.9 µM
18,Cc1cc(C(F)(F)F)c(C#N)c(SCC(=O)NC(C)(C)C)n1,inactive: > 76.9 µM
19,O=S(=O)(CCn1cccc1)CCn1cccc1,inactive: > 76.9 µM
